Results from the supplement of paper PMC11417369.
± gives the standard deviation of the averaged measurements. This is one part of the list.

Tested on: PfAP2-LT AP2 domain (GST-tagged)
Assay: gcPBM binding intensity (ln(normalized median fluorescence intensity)); higher = stronger DNA binding
Summary of the method: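 Binding intensity values are the highest Masliner-normalised natural-log median intensity among replicate spots of either probe orientation. The binding step lasted 1 h in 1× PBS with 1% milk, 0.2 mg/ml BSA, 0.5% salmon testes DNA and 0.03% Triton X-100, using GST-tagged P. falciparum DNA-binding domains expressed in E. coli on an Agilent 4 × 180k array of primer-extended double-stranded 36-bp intergenic genomic probes plus negative controls. Alexa488 anti-GST antibody and a 488 nm scan detected bound protein.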

Row | Sequence | gcPBM binding intensity (ln)
1 | AATTATTATCCCCTCACACACAAAAATAAAAAGAAT [CACACA_site2885] | 9.47 ± 0.31
2 | ATTTTTTATTGTTATAAAAAAAAAATTAAACAATTA [CACACA_negctrl_site1077] | 8 ± 0.38
3 | TATATCTATAATATTACACACATATATTTATATTTT [CACACA_site7595] | 8.95 ± 0.33
4 | CAAAAAAAGGAAAAGATACACACCGTAAATTAAAAT [CACACA_site3612] | 9.15 ± 0.46
5 | TATTCGTCTTTTTTCTCACACACCCTTTTTATTAAA [CACACA_site2508] | 9.09 ± 0.51
6 | AAATTTAGGAACATTATATATATATATATATATATA [CACACA_negctrl_site862] | 9.47 ± 0.26
7 | TAAAAATAAAGAAAATGTACATAAATAATAATACAT [XGTACX_site2278] | 8.89 ± 0.44
8 | GAACATTTGAAATATGCACACATGTATAAACCTACA [CACACA_site2654] | 9.07 ± 0.31
9 | AAAATAATAAAAAAAAAAAAAAAAAAAAAAAAGTAT [TGCATGCA_negctrl_site193] | 8.8 ± 0.59
10 | ATATATCTTCTTTGCACACTTAAAGGGAAGTGATAA [CACACA_site342] | 8.72 ± 0.3
11 | AAATAAAATAAAACAACACACACGAATGTATAAATA [CACACA_site885] | 9.45 ± 0.33
12 | AAAAAAATAATAAAATGTACAAATAAACACATAAAG [XGTACX_site5102] | 9.05 ± 0.55
13 | ACAAAGATAAAACATAAAATATATCAAACATAAAAT [XGTACX_negctrl_site198] | 8.96 ± 0.5
14 | AATAAATATAAATACACACCCATATAAATATAAATA [CACACA_site7264] | 9.3 ± 0.28
15 | AAAAAAAATACATGTTGTACGGTACAAATATAAAGT [XGTACX_site2863] | 9.41 ± 0.4
16 | TAATGTATCTAAAATTGTACAAATATAAATCTAAAT [XGTACX_site1197] | 8.68 ± 0.43
17 | TATATACACGCACATACACACAAATAAAAAAACACC [CACACA_site7578] | 9.67 ± 0.31
18 | TGTGTTGTAATTAAAACACACATGAAAAAATTAAAA [CACACA_site51] | 8.9 ± 0.37
19 | GTATTATTCTATAGAAGTACAGTATATTATTATTTA [XGTACX_site5073] | 8.56 ± 0.35
20 | TAAGGATTGGTATAAAGTACAGGAGTAAATTGAAAA [XGTACX_site8525] | 8.86 ± 0.59
21 | TACATATTGAATAAGACACACATATATATATATATA [CACACA_site1878] | 9.72 ± 0.18
22 | ATATTTTTTTTTTATTGTACCCTCATAAAAGAAAAG [XGTACX_site773] | 8.24 ± 0.4
23 | CATACACATATATATTGTACACATATATGTATGTAT [XGTACX_site4030] | 8.98 ± 0.31

Row | Sequence | gcPBM binding intensity (ln)
24 | TACAACAAGTAATGGTGTACATTATATTATGTAATA [XGTACX_site1194] | 8.88 ± 0.43
25 | TATAACAATTTTTATGCATGCGACTATAATATTTTT [TGCATGCA_site508] | 8.92 ± 0.42
26 | ATATAATTATATTCCATACACACATATATTTAAAGG [CACACA_site2958] | 8.86 ± 0.33
27 | AAAAAAATAAATAAATGTACATATATAAAACATTGT [XGTACX_site2136] | 8.93 ± 0.46
28 | AAACGAGAACATAATAAATACATAAATAAATAAATA [GTGCAC_negctrl_site433] | 9.03 ± 0.51
29 | TTTTTTATTCCATAATATAATATGTTTTGAAATTTG [GTGCAC_negctrl_site440] | 8.36 ± 0.52
30 | ATATACATATCAATGTAATATTATATACTTTTTTAG [CACACA_negctrl_site816] | 8.55 ± 0.41
31 | AATATATTAAATATTACACACATACATTTAGTGTAA [CACACA_site5145] | 8.86 ± 0.34
32 | TAGTTCTTTTAATTTAGTATTATACAATATTGGAAA [CACACA_negctrl_site521] | 8.29 ± 0.33
33 | TATATATTAAACTTTGCACACATAATTTAACTACAA [CACACA_site3440] | 9.09 ± 0.34
34 | TTATTTATGAAGTATACACACAATATATATATATAT [CACACA_site1248] | 9.14 ± 0.12
35 | TTAATCCACAGACACACACACACAAAATAAAATACA [CACACA_site244] | 9.98 ± 0.36
36 | TAGTTAATATGATTATGTACATATATATATTAATTT [XGTACX_site1750] | 8.59 ± 0.35
37 | TTAGATATTATTATATGTACATATTATATGTATTAT [XGTACX_site3836] | 8.93 ± 0.43
38 | ATTTTTTTTTTTTTTTTTTTTTTTTTTTTTGTTGTT [CACACA_negctrl_site1313] | 8.65 ± 0.49
39 | TGTATATGAAAAAATAGTACTCATATAAATATCTTT [XGTACX_site6542] | 8.56 ± 0.4
40 | ATAATATATTTATAAACACACAAAAAAAGTTATATA [CACACA_site6831] | 8.77 ± 0.43
41 | TTTATTTTATTCACTATCATAAGCAAAACTTAAACA [GTGCAC_negctrl_site287] | 8.16 ± 0.4
42 | ATTAATAATATTACATGTACATAATATAATTGAAAA [XGTACX_site5084] | 8.62 ± 0.4
43 | ATGTCCTATATTAGTACACACATGAAAATATAAATA [CACACA_site7497] | 8.88 ± 0.4
44 | TTATTGTTATTTGTTTGTACATAATATAATATATTA [XGTACX_site6477] | 8.68 ± 0.42
45 | TCCTATGATGATGATAGTACATATGAGTTCAAAAAA [XGTACX_site273] | 8.54 ± 0.37
46 | ACAATTAATCAAACAAGTACAAAATATATCCCTATT [XGTACX_site6223] | 8.91 ± 0.37

Row | Sequence | gcPBM binding intensity (ln)
47 | AATATAAAAAAAAACAAAAAAAAAATTTTGGTTCAC [CACACA_negctrl_site1290] | 8.39 ± 0.54
48 | AACCATACACAAATAAACATAGACACAGATACCTCC [CACACA_negctrl_site598] | 9.2 ± 0.52
49 | AATAATAAATAAATGTGTACTTAAAAATATTATATT [XGTACX_site3005] | 8.78 ± 0.47
50 | TTGTATCATATATTATGTACATATTGATTTATTACC [XGTACX_site12] | 8.84 ± 0.53
51 | CAAAGTATTATGATTACACACATGTGCTTTTTTCTT [CACACA_site163] | 9.22 ± 0.4
52 | TTTTTAAAATATTTAACACACAATTATAATGCATAA [CACACA_site3932] | 8.52 ± 0.32
53 | AGTAGTCTGGAGAAATGTACACAGTATCTGGTAGCT [XGTACX_site4871] | 8.86 ± 0.44
54 | AATATGTGTATAGATAGTACACATGCTGATAATATA [XGTACX_site5941] | 9.01 ± 0.38
55 | AAAATTTTGGAACGTGCACACATATGTAATATATAT [CACACA_site9004] | 9.32 ± 0.37
56 | CTTATAAGAATACTAGTGCACATAATTTAACGAAAA | 8.74 ± 0.48
57 | AGCTTGTAACAGTTTACACACTAATATTTATAAATT [CACACA_site6024] | 8.82 ± 0.38
58 | ATATTTTTTTTTTTATGTACTTATTTATAATTATTT [XGTACX_site5279] | 8.84 ± 0.58
59 | ATTATACAAATTGAGGTGCATGAAACAAAATATGAA | 8.95 ± 0.52
60 | TTTTTTTTTTTTTTTTCACACATTGTACTTTTTTAT [CACACA_site5193] | 8.84 ± 0.48
61 | TAAGTCATATAAATGTGTACATAAAAAAAAAAAATG [XGTACX_site1645] | 8.74 ± 0.5
62 | TCTATCAAATTTGAAGGTACACATTTGAGATAATTA [XGTACX_site3797] | 8.56 ± 0.45
63 | ATCATTTGCATACGCACACACACATAAAAAGAAAAA [CACACA_site355] | 9.57 ± 0.45
64 | TACTTATTGTGATACTTATATTATTTTATGATTAAA [XGTACX_negctrl_site353] | 8.5 ± 0.42
65 | TATATTTATTTATATACACACATAATAAAAAATATA [CACACA_site6527] | 8.6 ± 0.42
66 | TATTAATGATAAAAAAGTACATTATTATATGATATT [XGTACX_site4235] | 8.42 ± 0.48
67 | TATATATATATATATATATATATATATGTATATATG [XGTACX_negctrl_site242] | 9.62 ± 0.28
68 | ATAATCCACAAGCACACACACACACCCATATATATA [CACACA_site1268] | 10.1 ± 0.35
69 | AACTTTAAACCCTGAACACACACAAATACACCCAAA [CACACA_site7971] | 9.57 ± 0.23

Row | Sequence | gcPBM binding intensity (ln)
70 | CTTTTCTATTTTTTCGTGCACTATAAATATTTTAAT | 8.89 ± 0.43
71 | CACCAAAATATATGTACATATGATAAATGTGAATAT [GTGCAC_negctrl_site83] | 9.17 ± 0.41
72 | GTCTATATATTTTAGGTGCAACGTAAATGTAAAAAT | 8.86 ± 0.42
73 | AAAATTATCGTTATATGTACGCATCTTAATACGTAT [XGTACX_site4063] | 8.86 ± 0.3
74 | TAACTTTTTTTTTTTTTTTTTTAACTTTTATGTAAT [GTGCAC_negctrl_site156] | 8.32 ± 0.56
75 | TTTTACAATATTTTGTGTACTTATATTATGAGCTTA [XGTACX_site3287] | 8.58 ± 0.45
76 | TTTGTCAACCAAAATTGTACAAATGTATTCCCAATA [XGTACX_site1350] | 8.57 ± 0.36
77 | TTATTTATCAAAAAATGTACAAAAATATATAAACAA [XGTACX_site940] | 8.64 ± 0.45
78 | TTTTAAAAAAGAAAAAAAAAGGATCAGAGAAATATT [GTGCAC_negctrl_site79] | 8.35 ± 0.59
79 | TTATATTTATTTAATGAACACACGATATATTATTTT [CACACA_site1601] | 8.66 ± 0.41
80 | AAATGTTAATTAAATGCATGTACAAAAGGAGCGAAT [TGCATGCA_site942] | 9.25 ± 0.42
81 | AAAAAAATTAATAATGTGCACTTTTTAGTATTTTTA [GTGCAC_site9744] | 8.53 ± 0.49
82 | TTGTAGATATTTATATGTACGAATTTATAAATATAG [XGTACX_site3611] | 8.4 ± 0.4
83 | CTCAAAAAATATGAACGTACAAAATAAGTAATGACA [XGTACX_site590] | 8.96 ± 0.46
84 | TTTTTTTTTTTTTTTGCACACATTTTAATTATTTTT [CACACA_site341] | 9.08 ± 0.44
85 | AACTCATAGGAGTGTGCACACAAAAAATTAAAAAAA [CACACA_site8996] | 9.53 ± 0.67
86 | ATACATATTAATATGTGTACACATTTTTATTTTTTT [XGTACX_site930] | 8.99 ± 0.46
87 | AAAAAAAAAAAAAAAGGTACACAAAACGGTATTATT [XGTACX_site7064] | 8.94 ± 0.38
88 | TTTTTTTTTTTTGTCACACATATGGAATATATCTAT [CACACA_site5899] | 8.74 ± 0.47
89 | TTATAACTTTTCACAAGTACATATATATATGTATAA [XGTACX_site2306] | 8.56 ± 0.3
